Test results as given in the supplement of paper PMC3334620.
The full ranking holds about 33,000 sequences; the median of “E-score (-0.5 to 0.5)” is about -0.017, and the highest 2% start at about 0.3. The list shows a part of the results.

Molecular target: T1, Sut1 (UniProt P53032)
T1 sequence: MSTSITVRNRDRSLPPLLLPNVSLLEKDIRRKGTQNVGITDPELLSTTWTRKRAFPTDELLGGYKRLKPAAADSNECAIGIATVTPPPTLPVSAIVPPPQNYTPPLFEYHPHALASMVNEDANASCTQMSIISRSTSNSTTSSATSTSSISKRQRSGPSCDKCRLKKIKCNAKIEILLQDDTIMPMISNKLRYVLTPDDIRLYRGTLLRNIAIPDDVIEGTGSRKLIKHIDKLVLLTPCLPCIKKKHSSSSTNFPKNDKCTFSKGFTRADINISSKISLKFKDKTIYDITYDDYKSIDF
Experiment: PBM E-score (8-mer binding enrichment) (E-score (-0.5 to 0.5)); higher = stronger / more preferred TF binding; most listed sequences are background and not binding sites
Settings: protein concentration: 200 nM; construct: GST-full length
Summary of the method: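 Detection of bound protein used fluorescent anti-GST, with scans normalised by masliner. The proteins were GST-tagged yeast transcription factors applied at about 100-200 nM to universal all-10-mer Agilent arrays made double-stranded by primer extension. Each ungapped eight-base word, pooled with its reverse complement, was scored with an E-score from the Universal PBM Analysis Suite.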

Going from GACTCTAA to TCATCCCA, the “PBM E-score” value falls from 0.168 to -0.123.

First: AGTATTCA
Second: TACATCCA
The “PBM E-score” value of the first is higher: 0.15 for the first, 0.113 for the second.

First: CGCGGTAC
Second: TCATAAGA
The “PBM E-score” value of the first is lower: -0.0865 for the first, 0.0411 for the second.

Going from ACCGAGTG to TAATTTCA, the “PBM E-score” value rises from -0.183 to 0.346.

First: CCTGGGCC
Second: AGGCTGCG
The “PBM E-score” value of the first is lower: -0.165 for the first, -0.0636 for the second.

Going from ACCAAAAG to GGGGCATA, the “PBM E-score” value falls from 0.0306 to -0.179.

First: AATGCAGC
Second: CCGGATAG
The “PBM E-score” value of the first is lower: -0.182 for the first, 0.252 for the second.

Compared with CGGTTGTA, TGATGCCA is higher in “PBM E-score” value: -0.108 for the first, -0.0517 for the second.

Compared with ATTCAAAA, CGGCGAAC is lower in “PBM E-score” value: 0.266 for the first, 0.11 for the second.

Going from CTTTGTGC to TCCACTCA, the “PBM E-score” value rises from -0.123 to -0.0676.

Compared with AGTTATGA, ATCGAGTA is lower in “PBM E-score” value: 0.119 for the first, -0.0459 for the second.

Going from CCGCATTA to ATACCCTC, the “PBM E-score” value falls from 0.0646 to -0.047.

Going from AAAATAAA to GTTGAGGA, the “PBM E-score” value falls from 0.347 to -0.0729.

Going from GTGTGCGA to CGGTCGAC, the “PBM E-score” value rises from -0.19 to 0.0158.

Going from ATGTCAGC to ACGGTTCT, the “PBM E-score” value falls from -0.0772 to -0.108.

Compared with AGCCGGGA, CTACTTTC is higher in “PBM E-score” value: -0.0702 for the first, 0.068 for the second.

Going from ATGTTCTC to AACGGACG, the “PBM E-score” value falls from 0.0619 to 0.0275.

First: CGCGGCGA
Second: AGAGTGAT
The “PBM E-score” value of the first is higher: 0.0609 for the first, 0.0184 for the second.

Compared with GTTAATTA, CTTTAACA is lower in “PBM E-score” value: 0.232 for the first, 0.202 for the second.

First: CTATTAGA
Second: CCAATAGG
The “PBM E-score” value of the first is lower: -0.0266 for the first, -0.014 for the second.

Compared with ATGGTCTA, GAAACGTC is higher in “PBM E-score” value: -0.197 for the first, 0.0294 for the second.

Compared with TCTGAACA, AAGTTACC is higher in “PBM E-score” value: 0.0412 for the first, 0.158 for the second.

Compared with CTACGAAC, CCGGCCCA is lower in “PBM E-score” value: -0.0108 for the first, -0.149 for the second.

First: CCCGATAC
Second: GTGCCAAA
The “PBM E-score” value of the first is lower: -0.0666 for the first, -0.0416 for the second.

First: AAATATCA
Second: ATACAGAT
The “PBM E-score” value of the first is higher: 0.161 for the first, 0.0934 for the second.

First: CTCGCATA
Second: ACTAGTCA
The “PBM E-score” value of the first is higher: -0.00352 for the first, -0.0865 for the second.

First: AAGGGTTG
Second: AAACTGTC
The “PBM E-score” value of the first is higher: 0.0138 for the first, -0.13 for the second.

Going from AACTGCCT to CTTGTTAA, the “PBM E-score” value rises from 0.0307 to 0.175.

First: CGTACGAA
Second: ATCCCCTC
The “PBM E-score” value of the first is higher: 0.0666 for the first, -0.245 for the second.

Going from GAAGAAGA to CTGCTGTA, the “PBM E-score” value falls from 0.0297 to -0.0764.

First: GAGATGTA
Second: CCTGCTTA
The “PBM E-score” value of the first is higher: 0.112 for the first, -0.254 for the second.

First: AAACTGCT
Second: CGGGGTGC
The “PBM E-score” value of the first is lower: -0.127 for the first, 0.00192 for the second.

Compared with CTACGGTA, AGCGAAGA is higher in “PBM E-score” value: -0.0188 for the first, 0.00195 for the second.

Going from AAGCTCCG to TCGTCAAA, the “PBM E-score” value falls from 0.455 to 0.201.

First: CCCGTTAC
Second: AAACACAG
The “PBM E-score” value of the first is lower: 0.0635 for the first, 0.154 for the second.

Compared with GATTTTCC, AAACTGAC is lower in “PBM E-score” value: 0.104 for the first, -0.151 for the second.

Going from ACTAATAG to GTACTGTA, the “PBM E-score” value falls from 0.176 to -0.0605.

Compared with ATGGCGAC, TCGGTCCA is lower in “PBM E-score” value: -0.123 for the first, -0.213 for the second.

Going from ACGAACTA to CTCTTCAA, the “PBM E-score” value falls from 0.0258 to -0.0699.

First: GACACCGA
Second: AGCAGCTA
The “PBM E-score” value of the first is higher: 0.0441 for the first, 0.0365 for the second.

First: AACCCACC
Second: CACTCAGG
The “PBM E-score” value of the first is higher: -0.173 for the first, -0.21 for the second.

Going from AACATAAG to GATACTTA, the “PBM E-score” value falls from 0.162 to -0.111.

Going from CCAATCGA to ATGTTAAC, the “PBM E-score” value rises from -0.119 to 0.035.

First: AAGCCATG
Second: ATCTACTA
The “PBM E-score” value of the first is lower: -0.0848 for the first, 0.204 for the second.

Going from AGTCTCAG to ACTGTTTA, the “PBM E-score” value rises from -0.0583 to 0.0544.

First: GAGCACAC
Second: ATCTCGCG
The “PBM E-score” value of the first is lower: -0.12 for the first, 0.0484 for the second.

Compared with CTTCCAAG, GTTGCATA is lower in “PBM E-score” value: -0.0318 for the first, -0.0388 for the second.

Compared with TGGCAGAA, CCCTGTTC is lower in “PBM E-score” value: -0.0838 for the first, -0.17 for the second.

Going from CGAATCTA to GATCCCCA, the “PBM E-score” value falls from 0.00256 to -0.233.

Compared with CAACTGGG, AGCATGCC is lower in “PBM E-score” value: -0.244 for the first, -0.287 for the second.

Compared with GGAAGTCA, AGTGCCTG is higher in “PBM E-score” value: -0.0083 for the first, 0.0223 for the second.

Compared with CACGCTAA, CGCCCGCA is lower in “PBM E-score” value: -0.0612 for the first, -0.112 for the second.

Compared with AATGCTTA, AAACGAGA is higher in “PBM E-score” value: -0.1 for the first, 0.129 for the second.

First: GGGGTCAA
Second: CAGTTAAC
The “PBM E-score” value of the first is lower: -0.0104 for the first, 0.091 for the second.

Going from AGGCATGG to ACCCATAA, the “PBM E-score” value rises from -0.233 to 0.05.

Going from GCTGCCCC to AGATCGAG, the “PBM E-score” value rises from -0.363 to 0.0147.

Going from GCCCCCTA to AATCTTGA, the “PBM E-score” value rises from -0.247 to 0.0302.

First: ATTCGTTA
Second: ATTTTCCG
The “PBM E-score” value of the first is lower: 0.0408 for the first, 0.4 for the second.

First: CGTAAATA
Second: ATTGAGCG
The “PBM E-score” value of the first is higher: 0.22 for the first, 0.082 for the second.

Compared with CGGACTGC, AATGCATG is lower in “PBM E-score” value: 0.377 for the first, 0.0341 for the second.

First: ACTTTCTC
Second: GCCCGGTA
The “PBM E-score” value of the first is higher: 0.128 for the first, -0.187 for the second.

First: GGTTTCAA
Second: GTCGATCA
The “PBM E-score” value of the first is higher: 0.191 for the first, -0.0696 for the second.

First: AATAGAAC
Second: GCGTTGAA
The “PBM E-score” value of the first is higher: 0.219 for the first, 0.0644 for the second.

First: CCGCGCCA
Second: CAGTTGAC
The “PBM E-score” value of the first is lower: -0.0442 for the first, -0.00714 for the second.

First: ACACCGTC
Second: AGCGCCCG
The “PBM E-score” value of the first is higher: -0.0512 for the first, -0.216 for the second.

Going from CTTGGGAA to CACGGCCC, the “PBM E-score” value falls from -0.0313 to -0.26.

First: CTAGTAGA
Second: CCTAACCC
The “PBM E-score” value of the first is higher: 0.0133 for the first, -0.21 for the second.

Going from GTCAGGAC to AACTAGAA, the “PBM E-score” value rises from -0.206 to 0.188.

Going from ACGATGCT to ATTTTCGA, the “PBM E-score” value rises from -0.105 to 0.0872.

Compared with GATGTCCC, GTGGTCTA is lower in “PBM E-score” value: -0.0228 for the first, -0.033 for the second.

Compared with GCCTTAGC, AAGATTAG is higher in “PBM E-score” value: 0.0421 for the first, 0.0842 for the second.

Compared with AAACTCCC, CCCATTCC is lower in “PBM E-score” value: 0.0435 for the first, -0.257 for the second.

Compared with ATATGGAC, GCAGGCCC is lower in “PBM E-score” value: 0.0348 for the first, -0.275 for the second.

First: CTTCAACC
Second: GGGAGTAC
The “PBM E-score” value of the first is higher: 0.0965 for the first, -0.064 for the second.

Going from ATCCATAC to ACCCAACG, the “PBM E-score” value falls from 0.107 to -0.0276.

First: GGGTAGAA
Second: ATGAAATA
The “PBM E-score” value of the first is lower: -0.0311 for the first, 0.147 for the second.

First: CCTAAAGC
Second: AATCGCTA
The “PBM E-score” value of the first is lower: -0.157 for the first, -0.0577 for the second.

Going from GCCCTGAA to TGAACTCA, the “PBM E-score” value rises from -0.0902 to -0.061.

Going from TCCAAAAA to CAACGTCA, the “PBM E-score” value falls from 0.0814 to -0.0732.

Compared with GAGACCGA, AACGAACA is higher in “PBM E-score” value: 0.108 for the first, 0.147 for the second.

Going from GGCGCCGA to AGCCTGCC, the “PBM E-score” value falls from 0.0464 to -0.168.

Going from AAGACTTC to CCGTCAGG, the “PBM E-score” value falls from -0.196 to -0.217.

Going from CCGATACG to ACTCCTGG, the “PBM E-score” value falls from -0.0215 to -0.189.

First: GTAATGGA
Second: GACCATGC
The “PBM E-score” value of the first is higher: 0.141 for the first, -0.114 for the second.

Compared with TTAATAAA, TGACTCCA is lower in “PBM E-score” value: 0.341 for the first, -0.198 for the second.

Compared with CCCCTAAG, GAATTGGA is higher in “PBM E-score” value: -0.19 for the first, 0.0498 for the second.
